Consider 36 molecules from the supplement of paper PMC9588766.

Where a name gives a salt, the structure may show the parent alone. Whole data set: some 1,900 compounds, median “cell viability of compound + 1 nM pemigatinib relative to pemigatinib-only (DMSO) wells” near 0.95, cut for the lowest 2% near 0.22. The list shows a part of the results.

The experiment relates to PDC-DUC18828. The experiment is described as follows: cell viability of compound + 1 nM pemigatinib relative to pemigatinib-only (DMSO) wells (fraction); PDC-DUC18828 is a patient-derived cholangiocarcinoma cell line; higher = less growth inhibition. To be noted: first compound 1 µM; pemigatinib concentration 1 nM; 72 h. How it is done: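 Selleck Bioactive library screen in the patient-derived FGFR2 fusion-positive ICC cell line PDC-DUC18828 (500 cells/well). Each compound was tested at 1 uM with 1 nM pemigatinib, in triplicate, for 72 h. Viability was read by CellTiter-Glo and normalised to plate DMSO controls. Value is the paper's averaged normalised viability.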
As for `Nc1nccs1` [Aminothiazole] + CCN1C(=O)N(c2c(F)c(OC)cc(OC)c2F)Cc2cnc3[nH]c(CN4CCOCC4)cc3c21 [pemigatinib], the cell viability stood at 0.985.

Regarding `Cn1c(=O)c2c(ncn2CC(O)CO)n(C)c1=O` (stereo unspecified) [Dyphylline] + CCN1C(=O)N(c2c(F)c(OC)cc(OC)c2F)Cc2cnc3[nH]c(CN4CCOCC4)cc3c21 [pemigatinib], the cell viability is 0.996. Then `CCCc1nc(C(C)(C)O)c(C(=O)OCc2oc(=O)oc2C)n1Cc1ccc(-c2ccccc2-c2nnn[nH]2)cc1` [Olmesartan Medoxomil] + CCN1C(=O)N(c2c(F)c(OC)cc(OC)c2F)Cc2cnc3[nH]c(CN4CCOCC4)cc3c21 [pemigatinib], with 0.997; and `NCc1c[nH]c(=S)n1[C@H]1CCc2c(F)cc(F)cc2C1` [Nepicastat (SYN-117) HCl] + CCN1C(=O)N(c2c(F)c(OC)cc(OC)c2F)Cc2cnc3[nH]c(CN4CCOCC4)cc3c21 [pemigatinib], with 1.01.

Consider `CCCCCCCCCCCCCCCC[N+](C)(C)C` [Cetrimonium Bromide (CTAB)] + CCN1C(=O)N(c2c(F)c(OC)cc(OC)c2F)Cc2cnc3[nH]c(CN4CCOCC4)cc3c21 [pemigatinib], for which the cell viability came to 0.93.

Consider `O=C(NCc1ccc(Oc2ccccc2)cc1)c1nc(-c2cc(Br)c(O)c(Br)c2)no1` + CCN1C(=O)N(c2c(F)c(OC)cc(OC)c2F)Cc2cnc3[nH]c(CN4CCOCC4)cc3c21 [pemigatinib], for which the cell viability turned out to be 0.968.

As to `Cc1c(Cn2c(C)nc3c(C(=O)O)cc(N4CCOCC4)cc32)cccc1C(F)(F)F` + CCN1C(=O)N(c2c(F)c(OC)cc(OC)c2F)Cc2cnc3[nH]c(CN4CCOCC4)cc3c21 [pemigatinib], the cell viability was found to be 0.85. The figure for `S=c1nc[nH]c2nc[nH]c12` [6-Mercaptopurine (6-MP) Monohydrate] + CCN1C(=O)N(c2c(F)c(OC)cc(OC)c2F)Cc2cnc3[nH]c(CN4CCOCC4)cc3c21 [pemigatinib] is 0.893. Then `CC(C)N(CCC(=O)c1ccc2ccccc2c1)Cc1ccccc1` + CCN1C(=O)N(c2c(F)c(OC)cc(OC)c2F)Cc2cnc3[nH]c(CN4CCOCC4)cc3c21 [pemigatinib], with 1.01; and `CC(C)(C)C#Cc1cc(N(C(=O)[C@H]2CC[C@H](C)CC2)[C@H]2CC[C@H](O)CC2)c(C(=O)O)s1` [VX-222 (VCH-222, Lomibuvir)] + CCN1C(=O)N(c2c(F)c(OC)cc(OC)c2F)Cc2cnc3[nH]c(CN4CCOCC4)cc3c21 [pemigatinib], with 0.987.

For the molecule `CCOC(=O)c1ccc(C#Cc2ccc3c(c2)C(C)(C)CCS3)nc1` [Tazarotene] + CCN1C(=O)N(c2c(F)c(OC)cc(OC)c2F)Cc2cnc3[nH]c(CN4CCOCC4)cc3c21 [pemigatinib], the cell viability was found to be 0.991. For the molecule `CCC(C)(C)c1ccc(CC(C)CN2C[C@@H](C)O[C@@H](C)C2)cc1` (stereo partly specified) [Amorolfine HCl] + CCN1C(=O)N(c2c(F)c(OC)cc(OC)c2F)Cc2cnc3[nH]c(CN4CCOCC4)cc3c21 [pemigatinib], the cell viability is 0.942.

Regarding `COc1ccc(-c2cc3c(C)nc(N)nc3n([C@H]3CC[C@H](OCCO)CC3)c2=O)cn1` + CCN1C(=O)N(c2c(F)c(OC)cc(OC)c2F)Cc2cnc3[nH]c(CN4CCOCC4)cc3c21 [pemigatinib], the cell viability was found to be 0.16. The figure for `COc1ccc(/C=C/C(=O)C2(C(=O)/C=C/c3ccc(OC)c(OC)c3)CCCCC2)cc1OC` + CCN1C(=O)N(c2c(F)c(OC)cc(OC)c2F)Cc2cnc3[nH]c(CN4CCOCC4)cc3c21 [pemigatinib] is 0.852. The figure for `Cn1c(=O)c(F)c(Nc2ccc(I)cc2F)c2c(=O)n(C[C@@H](O)CO)cnc21` + CCN1C(=O)N(c2c(F)c(OC)cc(OC)c2F)Cc2cnc3[nH]c(CN4CCOCC4)cc3c21 [pemigatinib] is 0.527; for `CCN1CCC[C@H]1CNC(=O)c1cc(S(N)(=O)=O)ccc1OC` [Levosulpiride] + CCN1C(=O)N(c2c(F)c(OC)cc(OC)c2F)Cc2cnc3[nH]c(CN4CCOCC4)cc3c21 [pemigatinib] it is 1.03. Then `Nc1ccc(S(N)(=O)=O)cc1` [Sulfanilamide] + CCN1C(=O)N(c2c(F)c(OC)cc(OC)c2F)Cc2cnc3[nH]c(CN4CCOCC4)cc3c21 [pemigatinib], with 0.974; and `CCOc1nc2cccc(C(=O)OC(C)OC(=O)OC3CCCCC3)c2n1Cc1ccc(-c2ccccc2-c2nn[nH]n2)cc1` (stereo unspecified) [Candesartan Cilexetil] + CCN1C(=O)N(c2c(F)c(OC)cc(OC)c2F)Cc2cnc3[nH]c(CN4CCOCC4)cc3c21 [pemigatinib], with 0.991; and `CCCNS(=O)(=O)Nc1ncnc(OCCOc2ncc(Br)cn2)c1-c1ccc(Br)cc1` [Macitentan] + CCN1C(=O)N(c2c(F)c(OC)cc(OC)c2F)Cc2cnc3[nH]c(CN4CCOCC4)cc3c21 [pemigatinib], with 0.939. As to `COc1cc2c(NC3CCN(CC4CCCCC4)CC3)nc(N3CCCN(C(C)C)CC3)nc2cc1OCCCN1CCCCC1` + CCN1C(=O)N(c2c(F)c(OC)cc(OC)c2F)Cc2cnc3[nH]c(CN4CCOCC4)cc3c21 [pemigatinib], the cell viability came out at 0.955.

For `COc1ccc(-c2ccc3cc(C(=O)O)ccc3c2)cc1C12CC3CC(CC(C3)C1)C2` [Adapalene] + CCN1C(=O)N(c2c(F)c(OC)cc(OC)c2F)Cc2cnc3[nH]c(CN4CCOCC4)cc3c21 [pemigatinib], the cell viability worked out at 0.999.

For the molecule `Cc1cccc(N(C)C(=S)Oc2ccc3ccccc3c2)c1` [Tolnaftate] + CCN1C(=O)N(c2c(F)c(OC)cc(OC)c2F)Cc2cnc3[nH]c(CN4CCOCC4)cc3c21 [pemigatinib], the cell viability was 0.997. The figure for `C=CCNC1=C2C[C@@H](C)C[C@H](OC)[C@H](O)[C@@H](C)/C=C(\C)[C@H](OC(N)=O)[C@@H](OC)/C=C\C=C(/C)C(=O)NC(=CC1=O)C2=O` [17-AAG (Tanespimycin)] + CCN1C(=O)N(c2c(F)c(OC)cc(OC)c2F)Cc2cnc3[nH]c(CN4CCOCC4)cc3c21 [pemigatinib] is 0.309; for `CN1CCN(c2ccc3nc(-c4c(N)c5c(F)cccc5[nH]c4=O)[nH]c3c2)CC1` [Dovitinib (TKI258) Lactate] + CCN1C(=O)N(c2c(F)c(OC)cc(OC)c2F)Cc2cnc3[nH]c(CN4CCOCC4)cc3c21 [pemigatinib] it is 0.789; for `CN1CCN(c2ccc3nc(-c4c(N)c5c(F)cccc5[nH]c4=O)[nH]c3c2)CC1` [Dovitinib (TKI-258, CHIR-258)] + CCN1C(=O)N(c2c(F)c(OC)cc(OC)c2F)Cc2cnc3[nH]c(CN4CCOCC4)cc3c21 [pemigatinib] it is 1.01. On to `O=c1[nH]c(=O)n([C@H]2C[C@H](O)[C@@H](CO)O2)cc1I` [Idoxuridine] + CCN1C(=O)N(c2c(F)c(OC)cc(OC)c2F)Cc2cnc3[nH]c(CN4CCOCC4)cc3c21 [pemigatinib], for which the cell viability worked out at 0.943. The figure for `CCCCc1oc2ccccc2c1C(=O)c1cc(I)c(OCCN(CC)CC)c(I)c1` [Amiodarone HCl] + CCN1C(=O)N(c2c(F)c(OC)cc(OC)c2F)Cc2cnc3[nH]c(CN4CCOCC4)cc3c21 [pemigatinib] is 0.955; for `O=C(O)c1cccnc1` [Nicotinic Acid] + CCN1C(=O)N(c2c(F)c(OC)cc(OC)c2F)Cc2cnc3[nH]c(CN4CCOCC4)cc3c21 [pemigatinib] it is 0.997; for `O=C(O)CCCN1CCC(O[C@@H](c2ccc(Cl)cc2)c2ccccn2)CC1` [Bepotastine Besilate] + CCN1C(=O)N(c2c(F)c(OC)cc(OC)c2F)Cc2cnc3[nH]c(CN4CCOCC4)cc3c21 [pemigatinib] it is 0.913. Then `Cc1ccc(S(=O)(=O)OCC(=O)Nc2ccc(C(=O)O)c(O)c2)cc1` + CCN1C(=O)N(c2c(F)c(OC)cc(OC)c2F)Cc2cnc3[nH]c(CN4CCOCC4)cc3c21 [pemigatinib], with 0.974. The figure for `C[C@H]1C[C@H]2[C@@H]3CCC4=CC(=O)C=C[C@]4(C)[C@H]3C(=O)C[C@]2(C)[C@@]1(O)C(=O)CO` [Meprednisone] + CCN1C(=O)N(c2c(F)c(OC)cc(OC)c2F)Cc2cnc3[nH]c(CN4CCOCC4)cc3c21 [pemigatinib] is 0.953; for `CC1(C)C=C(CN2C/C(=C\c3ccc(F)cc3)C(=O)/C(=C/c3ccc(F)cc3)C2)C(C)(C)N1O` + CCN1C(=O)N(c2c(F)c(OC)cc(OC)c2F)Cc2cnc3[nH]c(CN4CCOCC4)cc3c21 [pemigatinib] it is 0.956. For `NNC(=O)c1ccncc1` [Isoniazid] + CCN1C(=O)N(c2c(F)c(OC)cc(OC)c2F)Cc2cnc3[nH]c(CN4CCOCC4)cc3c21 [pemigatinib], the cell viability worked out at 0.983. Then `CO[C@H]1C[C@@H]2CC[C@@H](C)[C@@](O)(O2)C(=O)C(=O)N2CCCC[C@H]2C(=O)O[C@H]([C@H](C)C[C@@H]2CC[C@@H](OC(=O)C(C)(CO)CO)[C@H](OC)C2)CC(=O)[C@H](C)/C=C(\C)[C@@H](O)[C@@H](OC)C(=O)[C@H](C)C[C@H](C)/C=C/C=C/C=C/1C` + CCN1C(=O)N(c2c(F)c(OC)cc(OC)c2F)Cc2cnc3[nH]c(CN4CCOCC4)cc3c21 [pemigatinib], with 0.571; and `CCC[C@@H]1C[C@@H](C(=O)N[C@@H]([C@H]2O[C@H](SC)[C@H](O)[C@@H](O)[C@H]2O)[C@@H](C)O)N(C)C1` [Lincomycin HCl] + CCN1C(=O)N(c2c(F)c(OC)cc(OC)c2F)Cc2cnc3[nH]c(CN4CCOCC4)cc3c21 [pemigatinib], with 0.99; and `N#Cc1c(Oc2ccc(F)c(NC(=O)Cc3cccc(C(F)(F)F)c3)c2)ccc2nc(NC(=O)C3CC3)sc12` + CCN1C(=O)N(c2c(F)c(OC)cc(OC)c2F)Cc2cnc3[nH]c(CN4CCOCC4)cc3c21 [pemigatinib], with 0.938.
